# The supplement of paper PMC3334620
# In all, about 33,000 sequences were measured (“E-score (-0.5 to 0.5)”: median about -0.017, highest 2% from about 0.3 on). Some of the results follow.
# Target: T1, Sut1 (UniProt P53032)
# T1 sequence: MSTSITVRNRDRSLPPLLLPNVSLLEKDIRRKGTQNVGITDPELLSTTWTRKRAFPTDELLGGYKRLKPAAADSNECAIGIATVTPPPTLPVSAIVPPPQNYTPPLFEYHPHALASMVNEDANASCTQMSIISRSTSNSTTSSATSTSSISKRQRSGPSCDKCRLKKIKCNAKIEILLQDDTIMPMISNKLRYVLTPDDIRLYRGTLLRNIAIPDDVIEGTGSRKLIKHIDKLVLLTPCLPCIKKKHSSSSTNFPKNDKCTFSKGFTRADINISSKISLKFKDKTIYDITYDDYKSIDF
# Assay: PBM E-score (8-mer binding enrichment) (E-score (-0.5 to 0.5)); higher = stronger / more preferred TF binding; most listed sequences are background and not binding sites
# Details: protein concentration: 200 nM; construct: GST-full length
# Method in brief: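 GST-tagged yeast TFs (full-length or DNA-binding domain) were made by PURExpress in vitro transcription/translation and applied at about 100-200 nM to universal all-10-mer Agilent arrays. The arrays were made double-stranded by primer extension, on fresh or once-stripped slides. Bound protein was detected with fluorescent anti-GST, and scans were normalised with masliner. Each ungapped eight-base word, pooled with its reverse complement, received an E-score (modified Wilcoxon-Mann-Whitney statistic) from the Universal PBM Analysis Suite.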
row,Sequence,PBM E-score
1,TAGCCATA,-0.198
2,ATGGGAGC,-0.0291
3,ACGCTAGC,-0.209
4,CTATGCAC,-0.28
5,TGAGCCAA,-0.0194
6,GACACACC,-0.0839
7,AAGAATTG,0.136
8,GATGCGCC,-0.186
9,CAACTGGA,-0.209
10,ACCCAGTA,-0.284
11,AACCGTGG,-0.178
12,CCGCGCGC,-0.125
13,ACGAACGG,0.0845
14,CAAGCGAG,-0.0477
15,CATCCCCA,-0.28
16,GCATAGAA,-0.0187
17,AATAGAGA,0.0122
18,CATTAATA,0.151
19,ACGTCTCG,-0.101
20,GTGGAGTA,-0.101
21,ATGTGCAC,-0.0356
22,AGAGTCCC,-0.0834
23,AAGCAGCT,0.0273
24,CTGCTGCC,-0.319
25,ATCTCTTA,0.134

row,Sequence,PBM E-score
1,GGTAGACA,0.0393
2,GTACATAA,0.137
3,AGGTGAAG,0.00569
4,TGTCGACA,-0.241
5,AAGGAATT,0.0671
6,ACTGCAGC,-0.143
7,ATCGGCAA,0.104
8,ACCGCCAC,-0.0951
9,GCCGCCCC,-0.156
10,ATTTACAG,0.0668
11,AAGTGTCT,0.0288
12,AAAGAGTC,-0.0103
13,GCACCGCA,-0.314
14,ACAGATTC,0.162
15,CCAGCCAG,-0.268
16,AGATATTA,0.211
17,TACCTTCA,0.0289
18,GCGATCCA,-0.121
19,AGACGCCA,-0.152
20,CGACGCCC,-0.103
21,CCGCTTAA,-0.0717
22,ACCTGGGG,-0.379
23,AGGCTATA,-0.185
24,GGACTGGA,-0.0583
25,TAAGAGTA,0.226

row,Sequence,PBM E-score
1,CTGCATTA,-0.182
2,CCAGAGGC,-0.23
3,CATGATCA,0.139
4,AACGCGGG,-0.0199
5,AATGAAAC,0.175
6,CACCGAGG,0.0171
7,GATCAAGA,0.153
8,CATCAGCC,-0.133
9,ACCCTGGG,-0.279
10,ACCTCCTG,-0.151
11,AAACTCGG,0.28
12,CAGGTACC,-0.265
13,CCTCCTCG,-0.232
14,GAACGGGC,-0.129
15,GAAGCGTC,-0.102
16,AGTCTGCG,-0.324
17,ACTACAAC,0.266
18,TATGGGAA,-0.0335
19,AAAAACGA,0.195
20,CACGCAGA,0.0407
21,TCTCCGCA,0.225
22,GTTGGGGA,-0.0953
23,AGTGGGTA,-0.0318
24,AGACCGAT,0.0576
25,AGCATCCC,-0.2

row,Sequence,PBM E-score
1,CACATGGG,-0.262
2,CCTCCCGC,-0.19
3,ACAGGACC,-0.108
4,GCTGACCA,-0.0367
5,ACTTGTTC,-0.0307
6,GCGAGACC,-0.139
7,AATGAATT,0.23
8,GAAGAACC,-0.0162
9,AGCACGAG,-0.0744
10,GGTATCAA,0.0679
11,ATGTCGCG,-0.0218
12,AGGGATCC,-0.224
13,CGAGAACG,0.0969
14,CGGAAAAG,0.245
15,AAGAGAGT,0.102
16,CCACAACC,0.0413
17,CTAGAGCC,-0.0856
18,AACCAGCA,-0.0548
19,ATTTTTGC,0.287
20,GCGTGAGA,-0.0629
21,ATTGTCGG,0.115
22,AACCTTTC,-0.0172
23,GCGATTAC,-0.0788
24,CATCCTGC,-0.211
25,CCACTCAC,-0.145

row,Sequence,PBM E-score
1,GACCGCGA,-0.169
2,CACTCTCC,0.0307
3,ACTGGTGA,-0.123
4,CCCCCCCA,-0.426
5,GATGCATA,0.00998
6,CCTTAATA,0.0272
7,GGTACAGA,-0.0604
8,CAAGATAG,-0.0215
9,ATGAGGAA,0.0562
10,AAGCGCGG,-0.0496
11,CCAAGCGA,-0.176
12,GCAAGCCC,-0.036
13,GTATGAGA,0.101
14,ATAGCAAA,0.12
15,CATGCGGC,-0.216
16,CATGGTCC,-0.193
17,ATACTGCG,-0.0624
18,AGTCACAA,-0.0527
19,CCCGACAC,-0.193
20,ATCCCATA,-0.00572
21,CAAGTTGG,0.0113
22,AGGGGTAC,-0.279
23,CTATTCAA,0.125
24,GTGACACA,0.0294
25,GGGAGTAA,0.0687

row,Sequence,PBM E-score
1,ACCGGGAA,0.145
2,AGCACGCG,0.0217
3,ACTCATTG,-0.148
4,AGCTTGGC,-0.0583
5,CCGCTAAG,-0.0197
6,CGGGCCCG,0.316
7,AGCTCCGA,0.464
8,CAGGCCAC,-0.206
9,AGTAGATG,0.129
10,CAGACGCG,-0.184
11,GCCTTTGA,-0.163
12,ACTTAGGA,-0.17
13,GTAGTTAA,0.17
14,GGGGCCAA,-0.233
15,AGAGCTGG,-0.0414
16,GGAGCCCA,-0.168
17,GACTGTAA,-0.0121
18,AGCCTTCC,-0.158
19,ATCGGTTC,0.113
20,TACGGCTA,-0.0196
21,CAGATGAG,-0.0746
22,AACGGCTT,-0.19
23,CTCATGTC,-0.0587
24,GCAGGTGA,-0.306
25,AGCCATGG,-0.264

row,Sequence,PBM E-score
1,TAAACCGA,0.091
2,CGTGGGGA,-0.202
3,GTTCGTCA,-0.11
4,AGCCCTGC,-0.0685
5,AGGGCCAT,-0.139
6,CCGATCAC,0.203
7,CTAGGGCC,-0.239
8,GCTAAGAC,-0.277
9,ATAAACGC,0.0289
10,CCGTTGGC,-0.137
11,CAAGCTCG,0.00718
12,CTGTATCC,0.0447
13,ATACCCTA,0.0827
14,CGTTGCAA,-0.00253
15,AATCTCTA,0.0586
16,CACCGCCG,-0.182
17,CAATATGA,0.181
18,AGTAGACC,-0.172
19,CTGCCTGC,-0.14
20,CACCCCTA,-0.293
21,CCGGAGTC,0.484
22,GCTATAGA,-0.0561
